Whole data set: some 110,000 compounds, median “z-score” near -0.1, cut for the highest 2% near 2. Some of the results follow. Activity calls are given as the source filed them.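 Rule for the calls: active = z-score in the third read window above 3 or below -3; inactive = the rest.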

This experiment concerns the target Metabotropic glutamate receptor 8 (Rattus norvegicus) (UniProt P70579). Description: mGluR8 Gi/Go-coupled signaling modulation – cell-based, rat, thallium flux, HTS, primary screen (AID 488969). Particulars: HEK293 rat mGluR8, GIRK (G protein-gated inwardly rectifying potassium channel) thallium flux, FluoZin2; at 10 µM; stronger effect = higher value; submaximal glutamate (EC20) added with thallium.
Sequence of UniProt P70579 (P70579 whole entry, looked up): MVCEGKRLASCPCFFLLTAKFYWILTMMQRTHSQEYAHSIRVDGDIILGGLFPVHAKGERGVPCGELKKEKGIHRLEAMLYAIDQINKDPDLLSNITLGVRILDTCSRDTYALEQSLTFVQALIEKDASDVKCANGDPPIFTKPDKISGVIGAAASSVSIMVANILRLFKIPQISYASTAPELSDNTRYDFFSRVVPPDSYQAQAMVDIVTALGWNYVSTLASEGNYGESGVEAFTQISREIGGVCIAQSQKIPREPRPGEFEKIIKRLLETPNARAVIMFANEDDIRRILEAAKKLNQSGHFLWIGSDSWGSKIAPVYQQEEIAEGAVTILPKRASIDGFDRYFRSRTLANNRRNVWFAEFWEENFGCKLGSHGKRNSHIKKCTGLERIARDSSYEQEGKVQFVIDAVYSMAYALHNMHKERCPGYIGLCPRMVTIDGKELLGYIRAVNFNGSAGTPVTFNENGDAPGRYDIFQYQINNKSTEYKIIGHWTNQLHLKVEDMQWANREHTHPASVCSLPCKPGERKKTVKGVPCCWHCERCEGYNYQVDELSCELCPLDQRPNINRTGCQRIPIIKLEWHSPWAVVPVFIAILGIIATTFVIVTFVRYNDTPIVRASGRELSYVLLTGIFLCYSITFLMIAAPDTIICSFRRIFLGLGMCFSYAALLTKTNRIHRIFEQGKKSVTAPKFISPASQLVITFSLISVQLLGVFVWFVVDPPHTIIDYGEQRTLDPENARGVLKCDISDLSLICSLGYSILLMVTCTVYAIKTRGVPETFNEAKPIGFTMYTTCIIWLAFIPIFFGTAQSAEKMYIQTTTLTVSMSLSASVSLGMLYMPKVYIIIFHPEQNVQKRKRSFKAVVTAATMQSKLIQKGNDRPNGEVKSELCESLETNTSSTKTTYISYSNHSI
Compound `CCOc1ccc(N2C(=O)c3ccccc3C2=O)cc1` registered a z-score of -1.29.
As for `COc1ccccc1N1CCSC1C(N)=O` (stereo not drawn), the figure is 0.0543; as for `CCOc1ccc(N(C(C)C(=O)Nc2ccc(OC)cc2)S(C)(=O)=O)cc1` (stereo not drawn), -0.0891; as for `COc1ccc(NS(=O)(=O)c2ccc(N/N=C/c3ccc(N4CCOCC4)cc3)c([N+](=O)[O-])c2)cc1`, -0.0386.
For `Cc1nnc(SCCn2c(N3CC(C)CC(C)C3)nc3c2c(=O)[nH]c(=O)n3C)s1` (stereo not drawn), the z-score was -0.0306.
Turning to `Cn1c(O)c(N=NC(=O)CNC(=O)c2ccco2)c2ccccc21`, the z-score was -0.2.
As to `Cc1ccc(OCC(=O)Nn2cnnc2)c(Br)c1`, the z-score is -0.0537.
The compound `Cc1cc(OCCCC(=O)NC2=NCCS2)ccc1Cl` gave a z-score of 0.598.
`CN1C(=O)c2ccc(NC(=O)c3c(F)c(F)c(F)c(F)c3F)cc2C1=O` displayed a z-score of -0.121.
Turning to `CC(=O)Nc1ccc(S(=O)(=O)Nc2nnc(C(C)C)s2)cc1`, the z-score was determined as 0.64.
`COc1ccc(OC/C(O)=C(\C#N)c2nc3ccccc3[nH]2)cc1` yielded a z-score of -0.162.
As for `Cc1ccc(Cn2ccc(NC(=O)C3C4CCC(C4)C3C(=O)O)n2)cc1` (stereo not drawn), the figure is 0.0155; as for `N#CC1=C(N)SC(N)=C(C#N)C1c1cccc(Oc2ccccc2)c1`, 0.744; as for `CN1CCN(c2nc(-c3ccccc3)cc(C(F)(F)F)n2)CC1`, 0.0193.
Regarding `CCCC(=O)Nc1ccc(C(=O)n2nnc3ccccc32)cc1`, the z-score was -0.112.
In the case of `Cc1ccc(C)c(N2CCN(C(=O)CCCn3c(=S)[nH]c4cc5c(cc4c3=O)OCO5)CC2)c1`, the z-score stood at 0.0212.
The compound `CN(c1ccccc1C(=O)Nc1cccc(Cl)c1Cl)S(C)(=O)=O` displayed a z-score of 0.0249.
As for `Nc1cc(C(=O)O)ccc1N1CCCCCC1`, the z-score was -0.171.
Compound `CC(C)CCNC(=O)C1CCN(c2nnc(-n3cccc3)s2)CC1` had a z-score of -0.259.
As for `O=C(CS(=O)(=O)Cc1ccccc1)N1CCN(Cc2ccc3c(c2)OCO3)CC1`, the figure is 0.245; as for `CCCC(=O)Nc1sc2c(c1C#N)CCCC2`, -0.0477.
In turn, `C=CCOc1ccccc1C1NC(=O)NC(C)=C1C(=O)NCc1ccccc1` (stereo not drawn) displayed a z-score of 0.175.
As for `CCOC(=O)c1ccc(NC(=O)CCOc2ccc(C)cc2)cc1`, the figure is -1.04.
As for `CC/C(C)=N/NC(=S)NCc1ccco1`, the figure is 0.0671; as for `COc1cc(/C=C/C(=O)c2ccc(C)c([N+](=O)[O-])c2)cc(OC)c1O`, -0.611; as for `COC(=O)C1CSC(C(=O)OC)N1C(=O)CN1CC(C)OC(C)C1` (stereo not drawn), 0.0363.
Regarding `CCC/C(O)=C1\C(=O)CC(C)(C)CC1=Nc1ccc(OC)cc1OC`, the z-score was -2.72.
Compound `Cc1cccc(/C=N/n2c(C)nnc2C)c1` yielded a z-score of 0.00103.
As for `COc1ccc(OCC(=O)NCCc2ccc(S(N)(=O)=O)cc2)cc1`, the figure is 0.211; as for `Cc1ccc(Nc2nc(CSc3nnc(-c4cccs4)o3)cs2)cc1`, 0.303; as for `C=CCN(c1cccc(C(F)(F)F)c1)S(=O)(=O)c1cccc(C(=O)OCC(=O)NC(N)=O)c1`, -0.548.
In turn, `COc1ccccc1/C=N/NC(=O)CC(=O)NCc1cccnc1` displayed a z-score of -0.2.
The value for `O=C(COC(=O)c1cc([N+](=O)[O-])ccc1NCCO)c1ccccc1` was -0.718; that for `CC(=O)c1ccc(NC(=O)c2cccs2)cc1` was -0.157.
As to `CCOCCCNC(=O)CNC(=S)N(Cc1ccccc1F)C1CCCCC1`, the z-score is 0.277.
The value for `Cc1ccc(C)c(NC(=S)NNC(=O)c2cc3c(s2)CCC(C)C3)c1` (stereo not drawn) was active: 10.3; that for `COc1cccc2c3c(c(C)nc12)CC(C)O3` (stereo not drawn) was 0.179.
As for `COc1ccc(OC)c(NC(=O)C2CCN(S(=O)(=O)c3cccs3)CC2)c1`, the figure is 0.701; as for `CC(C)CN(C(=O)COC(=O)Cc1c[nH]c2ccccc12)C1CCS(=O)(=O)C1` (stereo not drawn), 0.133.
For `CC1CCc2sc(C(=O)OC(C)C(=O)Nc3ncc(Cl)cc3Cl)cc2C1` (stereo not drawn), the z-score is -0.0769.
As for `Cn1ncc(C#N)c1NC(=O)c1cc(-c2ccccc2Cl)on1`, the figure is 0.559; as for `COC(=O)C1C(=O)NCC1c1ccc(OC)cc1` (stereo not drawn), 0.0171; as for `O=C(c1ccc([N+](=O)[O-])cc1)n1nc(-c2ccccc2)nc1NCc1ccc(F)cc1`, -0.327.
The value for `Cc1cccnc1NC(=O)c1ccc([N+](=O)[O-])o1` was 1.74; that for `COCCN(C(=O)Nc1ccccc1)c1ccccc1` was -0.157.
As for `CCCC1=[N+](CC(=O)c2ccccc2)CCn2c(C)ccc21`, the figure is 0.0619.
Compound `Cc1onc(-c2ccccc2Cl)c1C(=O)NC1CCS(=O)(=O)C1` (stereo not drawn) displayed a z-score of -0.0472.
The compound `Cc1ccc2c(c1)[nH]c1c(=O)n(CCC3=CCCCC3)cnc12` had a z-score of 0.117.
The value for `COc1cccc(C(=O)Nc2nc3ccccc3[nH]2)c1` was 0.00886; that for `C/C(=N\OCC(=O)Nn1c(=O)[nH]c2ccccc2c1=O)c1ccccc1` was -0.434; that for `COCCNC(=O)CCCn1c(=O)c2ccccc2n(CC(=O)NCCC2=CCCCC2)c1=O` was -0.376.
The value for `CC(=O)Nc1ccc(S(=O)(=O)NCc2ccc3[nH]c(C)cc3c2)cc1` was 0.331; that for `O=C(CNC(=O)c1ccccc1C(=O)O)c1ccccc1` was 0.0232.
The compound `COc1cc(/C=C(/NC(=O)c2ccccc2Cl)C(=O)O)cc(OC)c1OC` displayed a z-score of 1.75.
With `CCOc1ccc(C2CC(=O)NC(SCC(=O)OC)=C2C#N)cc1` (stereo not drawn), the z-score is -0.185.
The value for `N#Cc1c(NC(=O)CCC(=O)O)sc2c1CCCC2` was -1.14; that for `Cc1nc(Oc2ccc(Cl)cc2)c2oc3ccccc3c2n1` was 0.203.
As for `OC(COCc1cccs1)CN1CCN(c2ccccn2)CC1` (stereo not drawn), the figure is -0.291; as for `COc1c(N2CCN(C(=S)Nc3ccccc3)C(C)C2)c(F)cc2c(=O)c(C(=O)O)cn(C3CC3)c12` (stereo not drawn), -0.385; as for `C=C1c2cc(OC)ccc2NC(=O)N1CC`, -0.179.
The value for `Cc1ccc(SCCC(=O)NCc2ccco2)cc1` was -0.372; that for `CN(C(=O)c1c(Cl)nc2sccn12)C1CCCCC1` was 0.283; that for `O=C1C2C(c3ccccc3)(C(=O)N1c1ccc(Cl)cc1)C2(c1ccccc1)c1ccccc1` (stereo not drawn) was 0.266.
Take `Cc1ccc(-n2nc(C)c3c(=O)[nH]c(C(F)(F)F)nc32)cc1`: the z-score is -0.36.
As for `CCn1nnc(NC(=O)c2cc3ccccc3o2)n1`, the figure is -0.12; as for `O=C(c1cccc(-c2nnc(-c3ccccc3)o2)c1)N1CCCCC1`, -0.346.
Turning to `CC1(c2ccccc2)NC(=O)N(CC(=O)NCCC2=CCCCC2)C1=O` (stereo not drawn), the z-score is -0.118.
The value for `CCCNC(=O)COc1cccc(C(=O)NCc2ccccc2)c1` was -0.267; that for `O=C(OCC(=O)N1CCN(c2ccccc2)CC1)c1ccccn1` was -0.0775.
As for `Cc1ccc(Sc2ncccc2C(=O)O)cc1`, the figure is -0.245; as for `Cc1cc(C)c2nc(NC(=O)c3ccc4c(=O)n5c(nc4c3)CCCCC5)sc2c1`, -0.00607.
The compound `Cc1cc(NS(=O)(=O)c2ccc(NC(=O)C(C)N3C(=O)c4ccccc4C3=O)cc2)nc(C)n1` (stereo not drawn) gave a z-score of 0.345.
The value for `O=C1c2ccccc2C(=O)N1CC(O)CNc1ccc(Br)cc1` (stereo not drawn) was -0.177.
As for `CCNc1oc(COc2cccc(C)c2)nc1C#N`, the figure is 0.116; as for `COCC(C)n1c(-c2ccc3c(c2)NC(=O)CO3)csc1=Nc1ccc(OC(F)F)cc1` (stereo not drawn), 0.0435; as for `COc1ccc(OC)c2sc(N3CCN(c4ccccc4)CC3)nc12`, -0.015.
As for `COC(=O)c1ccccc1NC(=O)CC(NCc1ccccc1)C(=O)O` (stereo not drawn), the figure is -0.65.
Compound `O=C(CCN1CCCCC1)Nc1ccc(Br)cc1` came in with a z-score of 0.244.
The value for `COc1cc2cc(/C=C/C(=O)c3ccco3)c(Cl)nc2cc1OC` was 0.102; that for `C=CCNC(=O)C1CCN(S(=O)(=O)CC)CC1` was -0.0645.
The value for `O=C1c2ccccc2NC2(CCCCC2)N1c1ccc(O)cc1` was -0.127; that for `Cc1ccc(NC(=O)CCC(=O)N/N=C/c2ccco2)c(C)c1` was -1.12; that for `COC(=O)c1ccccc1NC(=S)NC(=O)COc1ccccc1` was active: 7.01.
The compound `COc1cc(OC)cc(C(=O)NCC(=O)N2CCC(C)CC2)c1` came in with a z-score of 1.29.
The value for `O=C(Cc1csc(N2CCOCC2)n1)N/N=C/c1cccc(O)c1` was 1.07; that for `Nc1nn(-c2ccccc2)c(N)c1N=Nc1ccccc1` was -0.213; that for `CS(=O)(=O)N1CCN(c2ccccc2NC(=O)c2ccc(-c3ccc(Cl)cc3Cl)o2)CC1` was -0.0974.
The value for `COc1cc(C2Nn3c(nnc3-c3ccccc3OC)S2)ccc1O` (stereo not drawn) was -0.0272.
In the case of `CC(C)(C)NC(=O)COc1ccc(CNc2ccc3[nH]c(=O)[nH]c3c2)cc1`, the z-score was -0.0446.
In the case of `Cc1cc2oc(=O)cc(CN3CCN(S(=O)(=O)/C=C/c4ccccc4)CC3)c2cc1C`, the z-score is -0.0277.
With `CCOC(=O)c1sc(-c2ccccc2)cc1NC(=O)CSc1nnnn1C`, the z-score stood at 0.0316.
The value for `O=C(Nc1ccc2c(c1)OCCO2)NC1CCCCC1` was 0.679; that for `COc1ccc(C)cc1NS(=O)(=O)c1cn(C)c(=O)n(C)c1=O` was -0.228; that for `Nc1nnc(CCCCc2cccs2)o1` was 0.143.
The value for `CCc1ccc(OCCOCC(O)CN(CCO)CCO)cc1` (stereo not drawn) was -0.151.
As for `Cc1c(Br)c(=O)[nH]c(=O)n1COCc1ccccc1`, the figure is -0.214; as for `O=C(NCc1cn2ccsc2n1)Nc1ccc(Cl)cc1`, 0.193.
For `CCSc1nnc(NC(=O)C(Cc2ccccc2)n2cccc2)s1` (stereo not drawn), the z-score was active: 4.24.
As for `CCOc1ccc(-c2[nH]nc3c2C(c2ccc(O)cc2)C(C#N)=C(N)O3)cc1` (stereo not drawn), the figure is 0.576; as for `O=C(Cc1ccc(Br)cc1)Nc1ccccc1Sc1ccccc1`, -0.136.
The value for `COc1ccc(OC2C(=O)N(c3cc(C)ccc3C)C2c2ccc(OC)c(OC)c2)cc1` (stereo not drawn) was -0.0868; that for `CCCCC(=O)Nc1ccc(C(=O)NCC(=O)OC)cc1` was 0.16; that for `Cc1nn(C)c(C)c1S(=O)(=O)N(CC(=O)NC1CCCCCC1)c1ccc(C(C)C)cc1` was -0.146.
Consider `C=CC[C@@H]1Cc2c(Br)ccc(Br)c2[C@@H](CC=C)N1`, for which the z-score is -0.169.
As for `COc1ccc(NC2CC(=O)N(c3cccc(C)c3)C2=O)cc1` (stereo not drawn), the figure is 0.542; as for `O=C(CCNc1ccc(Cl)cc1)c1cccs1`, -0.194.
As for `COC(=O)c1cnc(SC)nc1C`, the z-score is 0.0256.
As for `CC1(C)CC2CC(C)(CN2S(=O)(=O)c2ccc(C(=O)Nc3cc(S(=O)(=O)N4CCOCC4)ccc3Cl)cc2)C1` (stereo not drawn), the figure is 0.124; as for `N/C(=N\OC(=O)C12CC3CC(CC(C3)C1)C2)c1cccnc1`, -0.073.
The value for `Cc1ccc(SCCNC(=S)Nc2ccccc2)cc1` was 0.378; that for `CCC(Sc1ncccc1C(=O)O)C(=O)N1CCCC1` (stereo not drawn) was -0.388.
The value for `COc1ccc(NC(=O)c2ccc(=O)[nH]c2)cc1S(=O)(=O)N1CCCCC1` was 0.108.
`CCOc1ccc2nc(SCC(=O)c3ccc(C)s3)sc2c1` yielded a z-score of 0.0305.

(Values after PubChem BioAssay AID488969 (Vanderbilt High Throughput Screening Facility, 2010).)
